Measurements as given in PMC4336329 (PLoS ONE, 2015).
The whole screen tested about 310,000 compounds, of which about 2,200 (0.71%) showed an effect of 50% or more. The effect is printed as a negative number. The list shows a part of the results.

molecular target: human ether-à-go-go-related gene (hERG) potassium channel (human, UniProt Q12809); experiment: primary screen, population patch clamp on CHO cells stably expressing hERG
Sequence (Q12809 whole entry, looked up): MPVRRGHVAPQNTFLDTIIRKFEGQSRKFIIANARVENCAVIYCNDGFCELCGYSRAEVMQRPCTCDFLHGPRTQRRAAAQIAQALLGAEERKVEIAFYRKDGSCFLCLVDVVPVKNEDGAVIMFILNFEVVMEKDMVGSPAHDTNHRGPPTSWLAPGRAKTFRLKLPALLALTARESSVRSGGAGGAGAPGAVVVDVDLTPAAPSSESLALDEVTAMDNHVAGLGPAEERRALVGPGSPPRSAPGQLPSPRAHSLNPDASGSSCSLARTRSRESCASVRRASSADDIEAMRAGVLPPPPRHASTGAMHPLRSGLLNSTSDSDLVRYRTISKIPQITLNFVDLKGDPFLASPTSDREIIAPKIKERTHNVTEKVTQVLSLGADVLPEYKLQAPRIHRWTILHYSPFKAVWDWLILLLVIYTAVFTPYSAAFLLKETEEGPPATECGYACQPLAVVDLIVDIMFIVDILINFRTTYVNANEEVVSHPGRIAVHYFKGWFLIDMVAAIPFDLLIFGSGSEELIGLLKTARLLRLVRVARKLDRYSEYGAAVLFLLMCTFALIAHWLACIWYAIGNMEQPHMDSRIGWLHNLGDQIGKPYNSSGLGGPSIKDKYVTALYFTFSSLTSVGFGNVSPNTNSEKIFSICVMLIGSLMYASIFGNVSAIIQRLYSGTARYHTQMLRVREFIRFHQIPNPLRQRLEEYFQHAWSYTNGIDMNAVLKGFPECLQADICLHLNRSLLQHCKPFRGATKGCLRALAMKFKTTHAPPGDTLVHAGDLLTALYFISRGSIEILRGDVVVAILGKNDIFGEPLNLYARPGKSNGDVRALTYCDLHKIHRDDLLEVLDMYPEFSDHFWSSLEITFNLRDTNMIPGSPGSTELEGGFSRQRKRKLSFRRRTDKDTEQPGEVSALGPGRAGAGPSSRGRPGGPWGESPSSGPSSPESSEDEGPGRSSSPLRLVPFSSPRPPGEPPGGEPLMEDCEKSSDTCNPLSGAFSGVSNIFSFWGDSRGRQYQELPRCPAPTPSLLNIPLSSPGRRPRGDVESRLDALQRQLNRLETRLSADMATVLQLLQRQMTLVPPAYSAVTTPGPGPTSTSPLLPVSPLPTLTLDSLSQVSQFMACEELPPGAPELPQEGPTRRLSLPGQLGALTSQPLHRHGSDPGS

SMILES	hERG current change (%, negative = inhibition) at 1uM
CCNc1nc(Oc2ccc(=O)n(-c3ccccc3)n2)nc(N(C)C)n1	10.7%
O=C(N/N=C/c1ccc(OCc2cnc(Cl)s2)cc1)c1ccncc1	7.26%
CC1CC(C)CN(C(=O)CCNC(=O)Cn2ccc3ccccc3c2=O)C1 (stereo not drawn)	11%
Cc1ccc(CN(C(=O)c2ccco2)C(C(=O)NC2CCCC2)c2ccc(N3CCOCC3)cc2)cc1 (stereo not drawn)	-3.43%
COc1ccc2nc(C)cc(N3CCC(C(N)=O)CC3)c2c1	-2.62%
Brc1cc2ccccc2[n+](Cc2ccccc2)c1.[Br-]	2.83%
O=C(NCc1ccco1)C(=O)NCC1OCCN1S(=O)(=O)c1ccc(Cl)cc1 (stereo not drawn)	6.25%
Cc1ccc(S(=O)(=O)N(C)c2ccc(C(=O)Nc3ccc(C)cn3)cc2)cc1	15.4%
CC1CN(CCOc2cccc(Oc3ccccc3)c2)CC(C)O1.O=C(O)C(=O)O (stereo not drawn)	24.5%
CCOC(=O)NC(=O)/C(C#N)=C\Nc1ccc(Cl)cc1Cl	10.5%
S=C(NCc1cccnc1)Nc1ccc2c(c1)OCO2	-0.412%
CC(C)[C@H](NC(N)=O)C(=O)Nc1ccc(F)c(Cl)c1	10.9%
Clc1ccc(OCc2nn3c(-c4ccco4)nnc3s2)c(Cl)c1	-1.26%
O/N=C(/Cc1ccccn1)c1ccccc1	8.85%
O=C(C1COc2ccccc2O1)N1CCCCC1 (stereo not drawn)	13.2%
O=C1CSCC(=O)N1c1ccccc1	7.93%
CC1(C)CC2CC(C)(CN2C(=O)COC(=O)c2ccc(Cl)cc2N)C1 (stereo not drawn)	-3.27%
CC(OC(=O)COc1cccc2c1OC(C)(C)C2)C(=O)Nc1ccc(S(N)(=O)=O)cc1 (stereo not drawn)	5.17%
CCOCCCNC(=O)C1CCCCN1S(=O)(=O)c1ccc(F)cc1 (stereo not drawn)	2.91%
COC(C(=O)Nc1ccnn1C1CCN(C(=O)c2ccc(C)cc2)CC1)c1ccccc1 (stereo not drawn)	4.64%
CCOC(=O)CC(NC(=O)c1ccco1)c1ccc(C)cc1 (stereo not drawn)	11.4%
CCOC(=O)Nc1oc2ccccc2c(=O)c1C	-5.07%
CC1CCCC(NC(=O)COC(=O)CCSc2ccccc2)C1C (stereo not drawn)	11.4%

SMILES	hERG current change (%, negative = inhibition) at 1uM
O=C(c1ccccc1)N1CCCC(C(=O)N2CCN(c3ccccc3)CC2)C1 (stereo not drawn)	9.45%
COc1cccc2c(=O)n(CC(=O)N3CCN(c4ccccc4)CC3)ccc12	-3.64%
COC(=O)c1ccccc1NC(=O)COC(=O)c1ccc(C)c(NC(=O)c2ccco2)c1	-20.3%
Cc1[nH]n(-c2ccc([N+](=O)[O-])cc2)c(=O)c1C=NCCN1CCN(C(=O)c2ccc(Br)cc2)CC1	-77.4%
CCOC(=O)N1CCC(=NNC(=O)COc2ccc(C#N)cc2)CC1	5.21%
CCOC(=O)Nc1ccc(S(=O)(=O)Nc2nccc(C)n2)cc1	7.8%
COc1ccc2c(c1)C=C(C(=O)NCc1ccc(Cl)cc1)CO2	-6.77%
CCc1nn2c(=O)cc(CSCC(=O)Nc3ccccc3Cl)nc2s1	16.2%
Cc1c(O)ccc(C(=O)CN2CCN(Cc3ccccc3)CC2)c1O	-0.994%
O=C(NCCS(=O)(=O)N1CCN(c2cccc(Cl)c2)CC1)c1cc(=O)c2ccccc2o1	4.34%
Cc1ccc(OCCCC(=O)NCc2ccco2)c(C)c1	11.8%
Cc1c(C(=O)O)nnn1-c1ccccc1	9.38%
O=C(Nc1cccnc1Cl)c1cc(-c2ccc(O)cc2)on1	22.1%
Cc1nn(-c2ccccc2)c2sc(C(=O)N3CCOCC3)cc12	0.778%
O=C(CSc1nnc(-c2ccc(Cl)cc2)n1-c1ccccc1)N/N=C/c1ccccc1C(=O)O	-0.291%
CCn1c(O)c(/C=N/N=C2CCCC2)c2ccc(C3=NNC(=O)CC3)cc21	8.2%
CC(=O)c1ccc2c(c1)N(C)c1ccccc1S2	4.48%
Cc1cc(SCC(=O)OC/C(O)=C(\C#N)c2nc3ccccc3[nH]2)c(C)cc1Br	12.7%
O=S(=O)(c1ccc(N2CCCCCC2)nc1)N1CCCC1	14%
Cc1ccc(F)cc1NC(=O)CCc1c(C)nn(-c2ccc(N3CCCCC3)nn2)c1C	11.4%
Cc1cccc(OCC(=O)N2CCN(C(=O)COc3ccc(Cl)cc3)CC2)c1	-56.6%
Cl.Nc1ccc2c(c1)OCCOCCOCCOCCOCCO2	-12.2%
